From the supplement of paper PMC8728848
This is one part of the list.

Tests used:
Experiment in all cases: glycan array binding signal (z-score within array); higher = stronger binding
Conditions in all cases: glycan notation: IUPAC condensed, linker removed
[1] = target: Neu5Ac(a2-3)Gal(b1-4)[Fuc(a1-3)]GlcNAc
In short: (§1)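 The Consortium for Functional Glycomics database supplied 3228 glycan arrays, of which those lacking an available protein sequence were dropped. The binding signal, a within-array Z-score, was averaged across arrays of the same protein sequence and across linkers. Negative scores can be read as non-binding.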

[2] = target: Neu5Ac(a2-3)Gal(b1-4)[Fuc(a1-3)]GlcNAc(b1-3)Gal
In short: as §1

[3] = target: Neu5Ac(a2-3)Gal(b1-4)[Fuc(a1-3)]GlcNAc(b1-3)Gal(b1-4)GlcNAc
In short: as §1

[4] = target: Neu5Ac(a2-3)Gal(b1-4)[Fuc(a1-3)]GlcNAc(b1-3)Gal(b1-4)[Fuc(a1-3)]GlcNAc(b1-3)Gal(b1-4)[Fuc(a1-3)]GlcNAc
In short: as §1

[5] = target: Neu5Ac(a2-3)Gal(b1-4)[Fuc(a1-3)]GlcNAc(b1-6)[Gal(b1-3)]GalNAc
In short: as §1

[6] = target: Neu5Ac(a2-3)Gal(b1-4)[Fuc(a1-3)]GlcNAc6S
In short: as §1

[7] = target: Neu5Ac(a2-3)Gal6S(b1-4)GlcNAc
In short: as §1

[8] = target: Neu5Ac(a2-3)Gal6S(b1-4)[Fuc(a1-3)]GlcNAc
In short: as §1

Neu5Ac(a2-3)GalNAc = target: Neu5Ac(a2-3)GalNAc
In short: as §1

[9] = target: Neu5Ac(a2-3)GalNAc(b1-4)GlcNAc
In short: as §1

[10] = target: Neu5Ac(a2-3)[GalNAc(b1-4)]Gal(b1-4)Glc
In short: as §1

[11] = target: Neu5Ac(a2-3)[GalNAc(b1-4)]Gal(b1-4)GlcNAc
In short: as §1

[12] = target: Neu5Ac(a2-3)[Neu5Ac(a2-6)]GalNAc
In short: as §1

Neu5Ac(a2-6)Gal = target: Neu5Ac(a2-6)Gal
In short: as §1

Neu5Ac(a2-6)Gal(b1-4)Glc = target: Neu5Ac(a2-6)Gal(b1-4)Glc
In short: as §1

[13] = target: Neu5Ac(a2-6)Gal(b1-4)GlcNAc
In short: as §1

[14] = target: Neu5Ac(a2-6)Gal(b1-4)GlcNAc(b1-2)Man(a1-3)[Gal(b1-4)GlcNAc(b1-2)Man(a1-6)]Man(b1-4)GlcNAc(b1-4)GlcNAc
In short: as §1

[15] = target: Neu5Ac(a2-6)Gal(b1-4)GlcNAc(b1-2)Man(a1-3)[GlcNAc(b1-2)Man(a1-6)]Man(b1-4)GlcNAc(b1-4)GlcNAc
In short: as §1

[16] = target: Neu5Ac(a2-6)Gal(b1-4)GlcNAc(b1-2)Man(a1-3)[GlcNAc(b1-2)Man(b1-4)GlcNAc(b1-2)Man(a1-6)]Man(b1-4)GlcNAc(b1-4)GlcNAc
In short: as §1

[17] = target: Neu5Ac(a2-6)Gal(b1-4)GlcNAc(b1-2)Man(a1-3)[Neu5Ac(a2-6)Gal(b1-4)GlcNAc(b1-2)Man(a1-6)]Man(b1-4)GlcNAc(b1-4)GlcNAc
In short: as §1

[18] = target: Neu5Ac(a2-6)Gal(b1-4)GlcNAc(b1-2)Man(a1-6)[Gal(b1-4)GlcNAc(b1-2)Man(a1-3)]Man(b1-4)GlcNAc(b1-4)GlcNAc
In short: as §1

[19] = target: Neu5Ac(a2-6)Gal(b1-4)GlcNAc(b1-2)Man(a1-6)[GlcNAc(b1-2)Man(a1-3)]Man(b1-4)GlcNAc(b1-4)GlcNAc
In short: as §1

[20] = target: Neu5Ac(a2-6)Gal(b1-4)GlcNAc(b1-3)Gal(b1-4)GlcNAc
In short: as §1

[21] = target: Neu5Ac(a2-6)Gal(b1-4)GlcNAc(b1-3)Gal(b1-4)[Fuc(a1-3)]GlcNAc(b1-3)Gal(b1-4)[Fuc(a1-3)]GlcNAc
In short: as §1

[22] = target: Neu5Ac(a2-6)Gal(b1-4)GlcNAc6S
In short: as §1

Neu5Ac(a2-6)GalNAc = target: Neu5Ac(a2-6)GalNAc
In short: as §1

[23] = target: Neu5Ac(a2-6)GalNAc(b1-4)GlcNAc
In short: as §1

Neu5Ac(a2-8)Neu5Ac = target: Neu5Ac(a2-8)Neu5Ac
In short: as §1

[24] = target: Neu5Ac(a2-8)Neu5Ac(a2-3)Gal(b1-4)Glc
In short: as §1

[25] = target: Neu5Ac(a2-8)Neu5Ac(a2-3)[GalNAc(b1-4)]Gal(b1-4)Glc
In short: as §1

[26] = target: Neu5Ac(a2-8)Neu5Ac(a2-8)Neu5Ac
In short: as §1

[27] = target: Neu5Ac(a2-8)Neu5Ac(a2-8)Neu5Ac(a2-3)Gal(b1-4)Glc
In short: as §1

[28] = target: Neu5Ac(a2-8)Neu5Ac(a2-8)Neu5Ac(a2-3)[GalNAc(b1-4)]Gal(b1-4)Glc
In short: as §1

[29] = target: Neu5Ac(a2-8)Neu5Ac(a2-8)Neu5Ac(a2-8)Neu5Ac(a2-3)[GalNAc(b1-4)]Gal(b1-4)Glc
In short: as §1

[30] = target: Neu5Ac(b2-6)Gal(b1-4)GlcNAc
In short: as §1

Neu5Ac(b2-6)GalNAc = target: Neu5Ac(b2-6)GalNAc
In short: as §1

[31] = target: Neu5Ac9Ac(a2-6)Gal(b1-4)GlcNAc
In short: as §1

[32] = target: Neu5Gc(a2-3)Gal(b1-3)GlcNAc
In short: as §1

[33] = target: Neu5Gc(a2-3)Gal(b1-3)[Fuc(a1-4)]GlcNAc
In short: as §1

Neu5Gc(a2-3)Gal(b1-4)Glc = target: Neu5Gc(a2-3)Gal(b1-4)Glc
In short: as §1

[34] = target: Neu5Gc(a2-3)Gal(b1-4)GlcNAc
In short: as §1

[35] = target: Neu5Gc(a2-3)Gal(b1-4)[Fuc(a1-3)]GlcNAc
In short: as §1

[36] = target: Neu5Gc(a2-6)Gal(b1-4)GlcNAc
In short: as §1

Neu5Gc(a2-6)GalNAc = target: Neu5Gc(a2-6)GalNAc
In short: as §1

[37] = target: Neu5Gc(b2-6)Gal(b1-4)GlcNAc
In short: as §1

B1: R410P1E11 (Tachypleus tridentatus), TAL2_TACTR (protein)
chain: MEKGTPPTHDSDNWMGRAKEIGNGGWDQFQFLFFDPNGYLYAVSNDKLYKASPPQSDTDNWIARATEIGSGGWSGFKFLFFHPNGYLYAVRGQRFYKALPPVSNQD
glycan array binding signal (z-score) [1]: -0.448
glycan array binding signal (z-score) [2]: -0.706
glycan array binding signal (z-score) [3]: -0.635
glycan array binding signal (z-score) [4]: 0.798
glycan array binding signal (z-score) [5]: -0.087
glycan array binding signal (z-score) [6]: -0.385
glycan array binding signal (z-score) [7]: -0.344
glycan array binding signal (z-score) [8]: -0.473
glycan array binding signal (z-score) (Neu5Ac(a2-3)GalNAc): -0.169
glycan array binding signal (z-score) [9]: 0.139
glycan array binding signal (z-score) [10]: 0.332
glycan array binding signal (z-score) [11]: -0.156
glycan array binding signal (z-score) [12]: -0.27
glycan array binding signal (z-score) (Neu5Ac(a2-6)Gal): 1.23
glycan array binding signal (z-score) (Neu5Ac(a2-6)Gal(b1-4)Glc): -0.166
glycan array binding signal (z-score) [13]: -0.064
glycan array binding signal (z-score) [14]: -0.583
glycan array binding signal (z-score) [15]: -0.263
glycan array binding signal (z-score) [16]: -0.735
glycan array binding signal (z-score) [17]: -0.539
glycan array binding signal (z-score) [18]: -0.38
glycan array binding signal (z-score) [19]: -0.324
glycan array binding signal (z-score) [20]: 0.73
glycan array binding signal (z-score) [21]: -0.448
glycan array binding signal (z-score) [22]: -1.2
glycan array binding signal (z-score) (Neu5Ac(a2-6)GalNAc): -0.406
glycan array binding signal (z-score) [23]: -0.042
glycan array binding signal (z-score) (Neu5Ac(a2-8)Neu5Ac): -0.039
glycan array binding signal (z-score) [24]: 0.579
glycan array binding signal (z-score) [25]: -0.255
glycan array binding signal (z-score) [26]: -0.105
glycan array binding signal (z-score) [27]: -0.781
glycan array binding signal (z-score) [28]: -0.267
glycan array binding signal (z-score) [29]: -0.502
glycan array binding signal (z-score) [30]: -0.614
glycan array binding signal (z-score) (Neu5Ac(b2-6)GalNAc): -0.437
glycan array binding signal (z-score) [31]: -0.241
glycan array binding signal (z-score) [32]: -0.066
glycan array binding signal (z-score) [33]: -0.517
glycan array binding signal (z-score) (Neu5Gc(a2-3)Gal(b1-4)Glc): -0.082
glycan array binding signal (z-score) [34]: -0.156
glycan array binding signal (z-score) [35]: -0.277
glycan array binding signal (z-score) [36]: 0.352
glycan array binding signal (z-score) (Neu5Gc(a2-6)GalNAc): 0.337
glycan array binding signal (z-score) [37]: -0.186
